Reference: the supplement of paper PMC7826260
The other results are listed elsewhere or left out. Cleavage of a single-stranded DNA pool by Rep nickase domains was read by sequencing at 3 µM enzyme and 37 °C for 1 h; the strands have 90 letters, of which the middle is given. The score is log2 (uncut reads / reads without enzyme); the lower, the more was cut; hits are not called. Shares of all reads are compared; values above 0 arise when much of the pool is cut.

What was measured:
Test in all cases: uncleaved DNA left, log2 of reads against the no-enzyme library (log2 ratio); higher = less cleavage (more negative = more Rep cleavage of the k-mer); sequences stand for … in CTCGTCCG…ACCGGAGA
[1] = system: T1, Rep nickase domain of Muscovy duck circovirus
T1 sequence (residues 1-111 of Rep, tag left off): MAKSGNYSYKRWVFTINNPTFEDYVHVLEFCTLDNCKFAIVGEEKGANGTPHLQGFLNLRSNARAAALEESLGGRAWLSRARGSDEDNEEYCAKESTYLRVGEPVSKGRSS
Procedure: (§1)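 A pool of 90-nt single-stranded DNAs with seven random bases just before the constant AC of the nick site (name = the seven bases) was cut by 3 µM recombinant His6-SUMO-tagged Rep nickase domain (300 nM DNA, 50 mM HEPES pH 8.0, 50 mM NaCl, 1 mM MnCl2, 1 h, 37 °C, three replicates). Uncut DNA was amplified and sequenced.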

[2] = system: T2, Rep nickase domain of banana bunchy top virus
T2 sequence (residues 1-94 of Rep, tag left off): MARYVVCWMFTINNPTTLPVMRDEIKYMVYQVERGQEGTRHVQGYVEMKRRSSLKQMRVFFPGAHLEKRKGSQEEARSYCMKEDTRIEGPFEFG
Procedure: as §1

[3] = system: T3, Rep nickase domain of cabbage leaf curl virus
T3 sequence (residues 1-116 of Rep, tag left off): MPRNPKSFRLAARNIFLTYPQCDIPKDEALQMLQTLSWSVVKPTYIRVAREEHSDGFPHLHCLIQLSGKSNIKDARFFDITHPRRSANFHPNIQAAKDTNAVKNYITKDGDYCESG
Procedure: as §1

[4] = system: T4, Rep nickase domain of chickpea chlorotic dwarf virus
T4 sequence (residues 1-124 of Rep, tag left off): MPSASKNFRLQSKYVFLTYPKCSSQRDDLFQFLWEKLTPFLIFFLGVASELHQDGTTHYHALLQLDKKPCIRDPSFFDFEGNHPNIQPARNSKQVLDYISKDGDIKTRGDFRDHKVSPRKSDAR
Procedure: as §1

[5] = system: T5, Rep nickase domain of faba bean necrotic yellows virus
T5 sequence (residues 1-98 of Rep, tag left off): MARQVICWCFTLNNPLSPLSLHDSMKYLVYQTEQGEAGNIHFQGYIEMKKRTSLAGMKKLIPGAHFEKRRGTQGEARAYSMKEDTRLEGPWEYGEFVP
Procedure: as §1

[6] = system: T6, Rep nickase domain of maize striate mosaic virus
T6 sequence (residues 1-117 of Rep, tag left off): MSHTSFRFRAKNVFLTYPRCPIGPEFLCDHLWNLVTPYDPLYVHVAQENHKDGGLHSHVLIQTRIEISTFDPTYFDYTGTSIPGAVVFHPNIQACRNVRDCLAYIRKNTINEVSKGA
Procedure: as §1

[7] = system: T7, Rep nickase domain of porcine circovirus 2
T7 sequence (residues 2-116 of Rep, tag left off): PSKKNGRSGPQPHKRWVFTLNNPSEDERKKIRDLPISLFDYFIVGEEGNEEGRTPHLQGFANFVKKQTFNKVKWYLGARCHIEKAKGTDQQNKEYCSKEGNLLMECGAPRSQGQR
Procedure: as §1

[8] = system: T8, Rep nickase domain of tomato golden mosaic virus
T8 sequence (residues 1-124 of Rep, tag left off): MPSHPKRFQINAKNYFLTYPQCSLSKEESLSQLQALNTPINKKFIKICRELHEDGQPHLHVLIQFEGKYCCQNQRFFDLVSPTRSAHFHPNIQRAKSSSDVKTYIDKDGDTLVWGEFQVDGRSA
Procedure: as §1

[9] = system: T9, Rep nickase domain of tomato yellow leaf curl virus
T9 sequence (residues 1-136 of Rep, tag left off): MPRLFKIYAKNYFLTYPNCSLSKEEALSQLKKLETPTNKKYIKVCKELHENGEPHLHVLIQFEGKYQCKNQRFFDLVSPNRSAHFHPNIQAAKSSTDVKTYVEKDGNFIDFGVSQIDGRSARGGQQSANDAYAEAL
Procedure: as §1

[10] = system: T10, Rep nickase domain of wheat dwarf virus
T10 sequence (residues 1-137 of Rep, tag left off): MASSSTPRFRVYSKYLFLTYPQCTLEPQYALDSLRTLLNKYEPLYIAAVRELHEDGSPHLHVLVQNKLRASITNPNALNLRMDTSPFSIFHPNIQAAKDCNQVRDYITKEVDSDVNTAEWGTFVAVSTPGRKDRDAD
Procedure: as §1

Row | Sequence | uncleaved DNA left (log2) [1] | uncleaved DNA left (log2) [2] | uncleaved DNA left (log2) [3] | uncleaved DNA left (log2) [4] | uncleaved DNA left (log2) [5] | uncleaved DNA left (log2) [6] | uncleaved DNA left (log2) [7] | uncleaved DNA left (log2) [8] | uncleaved DNA left (log2) [9] | uncleaved DNA left (log2) [10]
1 | TTTGCCT | 0.0835 | -0.0741 | -0.516 | -1.91 | 0.0273 | -1.18 | -0.0812 | -0.083 | -0.0118 | -0.103
2 | TGTGCCA | 0.103 | 0.0817 | 0.257 | 0.604 | 0.0834 | 1.09 | 0.179 | 0.0965 | 0.15 | 0.0978
3 | GGTCCAA | -0.077 | 0.0225 | 0.411 | 1.2 | -0.115 | 1.78 | 0.0498 | -0.0623 | -0.0114 | 0.0484
4 | CAAACAC | 0.00662 | -0.0469 | -0.297 | -0.859 | 0.013 | -0.85 | 0.124 | -0.0372 | -0.128 | 0.0371
